Experimental data taken from PMC4336329 (PLoS ONE, 2015).
Hit rate of the full screen: of about 310,000 compounds, about 2,200 (0.71%) showed an effect of 50% or more. The effect is printed as a negative number. This is one part of the list.

Target: human ether-à-go-go-related gene (hERG) potassium channel (human, UniProt Q12809)
Assay: primary screen, population patch clamp on CHO cells stably expressing hERG

Sequence of human ether-à-go-go-related gene (hERG) potassium channel (Q12809 whole entry, looked up): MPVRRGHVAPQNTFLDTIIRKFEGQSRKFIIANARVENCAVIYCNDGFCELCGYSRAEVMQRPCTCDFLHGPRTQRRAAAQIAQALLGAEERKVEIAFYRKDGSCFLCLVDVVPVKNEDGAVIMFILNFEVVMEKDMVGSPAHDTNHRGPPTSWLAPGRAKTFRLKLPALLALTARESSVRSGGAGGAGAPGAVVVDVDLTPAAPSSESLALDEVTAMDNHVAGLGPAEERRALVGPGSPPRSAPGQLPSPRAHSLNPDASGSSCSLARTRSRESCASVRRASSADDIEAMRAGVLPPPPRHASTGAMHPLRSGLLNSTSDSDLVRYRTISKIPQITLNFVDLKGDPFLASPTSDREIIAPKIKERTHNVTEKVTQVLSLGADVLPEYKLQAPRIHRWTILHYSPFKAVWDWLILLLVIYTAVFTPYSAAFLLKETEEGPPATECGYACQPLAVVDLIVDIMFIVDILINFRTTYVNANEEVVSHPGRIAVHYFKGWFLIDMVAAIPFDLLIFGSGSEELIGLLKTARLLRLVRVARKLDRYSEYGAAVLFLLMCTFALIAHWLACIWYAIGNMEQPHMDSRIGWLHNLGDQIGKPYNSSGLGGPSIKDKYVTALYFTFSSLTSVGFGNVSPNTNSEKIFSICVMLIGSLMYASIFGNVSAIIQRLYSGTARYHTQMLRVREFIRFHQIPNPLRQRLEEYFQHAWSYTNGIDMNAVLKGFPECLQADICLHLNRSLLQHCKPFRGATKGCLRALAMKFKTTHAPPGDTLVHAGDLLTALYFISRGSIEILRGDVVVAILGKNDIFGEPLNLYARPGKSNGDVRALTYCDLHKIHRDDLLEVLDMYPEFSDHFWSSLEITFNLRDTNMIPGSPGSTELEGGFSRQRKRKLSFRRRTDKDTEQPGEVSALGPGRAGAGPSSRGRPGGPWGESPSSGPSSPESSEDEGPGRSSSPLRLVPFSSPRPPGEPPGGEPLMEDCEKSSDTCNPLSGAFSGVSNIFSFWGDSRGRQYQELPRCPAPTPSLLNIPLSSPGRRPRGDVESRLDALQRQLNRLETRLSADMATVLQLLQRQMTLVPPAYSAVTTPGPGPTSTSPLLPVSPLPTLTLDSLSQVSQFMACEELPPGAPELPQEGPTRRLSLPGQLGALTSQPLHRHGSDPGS

SMILES	hERG current change (%, negative = inhibition) at 1uM [%]
Cc1csc(NC(=O)c2cc3c(s2)CCC3)n1	8.92
O=C1CCC/C1=C/Nc1ccc2c(c1)OCO2	11.2
Cc1cccc(NC(=S)NC(=O)C2CC2)c1	13.6
CCSc1nnc(-c2ccc(Cl)cc2)c2ccccc12	7.78
Cc1ccc(S(=O)(=O)N(Cc2cccc(C)c2)C(=O)N2CCN(C)CC2)cc1	13.5
COc1ccc([C@H]2CC(=O)C=C(c3ccc4c(c3)OCCO4)C2)cc1	9.59
CC(C)C(NS(=O)(=O)c1cccs1)C(=O)NCc1ccccc1Cl (stereo not drawn)	3.64
O=C(NC1(C(F)(F)F)NC(=O)N(Cc2cccnc2)C1=O)c1ccccc1 (stereo not drawn)	3.47
Cc1cccc(C)c1NC(=O)c1sc(N)nc1-c1ccccc1	2.83
O=C(NC1CC1)C1CC(=O)N(C2CCCCC2)C1 (stereo not drawn)	11.4
Cc1ccc(N(CC(=O)NCc2ccc(F)cc2)C(=O)CCC(=O)Nc2ccccn2)cc1C	9.04
COc1cccc(-c2cc(C(=O)Nc3ccc(OC)c(OC)c3)no2)c1	4.92
O=C(Cc1ccc(Cl)cc1)c1c[nH]c(C(=O)NCc2cccnc2)c1	-2.65
CN(C)S(=O)(=O)c1ccc(-c2csnn2)s1	2.18
CCCc1nc(SCC(=O)N2CCCC2)c2ccccc2n1	-8.6
O=C(NC(=S)NCc1cccnc1)c1ccccc1[N+](=O)[O-]	25.5
O=C(c1ccco1)N1CCC(c2nc3c(nnn3Cc3ccc(F)cc3)c(=O)[nH]2)CC1	6.38
O=C(CC(=O)c1ccccc1)Nc1ccccc1C(F)(F)F	13.8
COc1ccc(/C=c2\s/c(=C(/C#N)C(=O)NCc3ccco3)n(-c3ccccc3)c2=O)cc1	8.58
CCOC(=O)Nc1ccc2c(c1)N(C(=O)CCCl)c1ccccc1[S@]2=O	16.1
CC1Cc2ccccc2N1CC(=O)c1c(N)n(Cc2ccccc2)c(=O)n(C)c1=O (stereo not drawn)	-11.7
COc1ccc(N2C(=O)CC(N3CCC(O)(c4cccc(C(F)(F)F)c4)CC3)C2=O)cc1 (stereo not drawn)	3.91
CCN(CC)CCNc1nc(SC)nc2sc3c(c12)CCN(C)C3	13.2

SMILES	hERG current change (%, negative = inhibition) at 1uM [%]
Cc1cc(C(=O)Nc2ccccc2N2CCCCC2)no1	14.4
COc1ccc(C(=O)Nc2cc(C(F)(F)F)ccc2Cl)cc1OC	0.0432
O=C(OCc1cc([N+](=O)[O-])cc2c1OCOC2)c1ccccn1	19.5
O=C(Nc1ccccc1)Nc1csc2ccccc12	7.36
CCN1C(=O)/C(=C\c2cccc(OC(=O)c3ccco3)c2)SC1=S	12.7
Cc1nc(CNS(=O)(=O)c2cc(C)c(C)cc2C)cs1	-4.05
COc1ccc(Cl)cc1NC(=O)CN(C)CC(=O)Nc1ccccc1C(F)(F)F	5.76
O=C(C1CCN(S(=O)(=O)c2cccnc2)CC1)N1CCCCC1	8.63
COC(=O)c1c(NC(NC(=O)C(C)C)C(Cl)(Cl)Cl)sc2c1CCC2 (stereo not drawn)	6.7
COc1ccc(NC(=O)c2ccco2)cc1NC(=O)c1ccccc1[N+](=O)[O-]	8.28
CC1=NN(C(C)C)C(=O)C1	0.0595
CSc1ccc(S(=O)(=O)Nc2cccc(F)c2)cc1	13.3
CC(C)COC(=O)Cc1c(O)c2ccccc2[nH]c1=O	14.3
O=C(CC1C(=O)NCCN1Cc1ccc(-c2ccccc2)cc1)NC1CCC1 (stereo not drawn)	10.4
Cc1ncc(CSCC(=O)Nc2cc(C(F)(F)F)ccc2Cl)c(CO)c1O	10.1
O=C1CC(NS(=O)(=O)c2ccc3ccccc3c2)CN1c1ccccc1 (stereo not drawn)	8.86
O=C(CSc1nc(=O)n(CCCN2CCOCC2)c2c1CCC2)Nc1ccc(F)cc1	-2.68
COc1ccc(C2=NN(C(C)=O)C(c3ccccc3)C2)cc1 (stereo not drawn)	10.1
O=C(OCC(=O)N(CCc1ccccc1)Cc1ccccc1)c1cccc(O)c1	61.1
Cc1cc(=O)[nH]c(NN=C2CCC(C(C)(C)C)CC2)n1 (stereo not drawn)	13.5
CCOc1cccc2sc(N3CCN(C(=O)c4ccc5ncsc5c4)CC3)nc12	10.9
COc1ccc(-c2cc(C(=O)NCc3ccco3)c3ccccc3n2)cc1	15.6
Cc1cc(C)c(C(=O)COC(=O)c2cc([N+](=O)[O-])ccc2N2CCOCC2)cc1C	12.2

SMILES	hERG current change (%, negative = inhibition) at 1uM [%]
Cn1c(SCc2ccc(Cl)cc2)nnc1-c1ccc2nonc2c1	10.6
CN(C)C(=S)Nc1cccc(F)c1	8.99
COc1ccc(NC(=O)c2c(C)noc2C(C)C)cc1S(=O)(=O)N1CCCCC1	0.541
O=C(CSc1nc(-c2ccccc2)cs1)NCc1ccco1	-1.15
Cc1noc(C)c1S(=O)(=O)N1CCC(C(=O)N2CCN(C3CCCC3)CC2)CC1	12
CC(C)C(NC(=O)C1CCCCC1)C(=O)Nc1ccc2c(c1)OCCO2 (stereo not drawn)	0.124
CC1CN(C(=O)c2ccc(S(=O)(=O)Nc3cccc(C(F)(F)F)c3)cc2)CC(C)O1 (stereo not drawn)	3.54
COc1ccc2nc(S(=O)Cc3ncc(C)c(OC)c3C)[nH]c2c1 (stereo not drawn)	18.1
COC(C(=O)Nc1ccnn1C1CCN(Cc2ccc(CO)o2)CC1)c1ccccc1 (stereo not drawn)	9.7
CCn1c(O)c2ccc(C(=O)N=NC(=O)c3ccccc3)cc2c1O	8.57
CCC(C)n1cnc2c(c1=O)c1nc3ccccc3nc1n2Cc1ccccc1OC (stereo not drawn)	14.7
CCNc1nc(Cl)nc(NNC(=O)C(C)Oc2ccccc2)n1 (stereo not drawn)	11.6
COc1ccc(CCC2(C)NC(=O)N(C(C)C(=O)Nc3ccccc3F)C2=O)cc1 (stereo not drawn)	-19.4
Cc1cnc(C(=O)OCC(=O)N2CCc3ccccc3C2)cn1	11.7
Cc1ccc(C)c(NC(=O)C[n+]2ccccc2)c1.[Cl-]	10.9
N#CC1=C(N)Oc2cc(N)ccc2C1c1cccc(Br)c1 (stereo not drawn)	3.1
O=C(c1c(Cl)cccc1Cl)N1CCN(c2ccccn2)CC1	-8.02
O=C1CC(C(=O)Nc2ccc(F)cc2)n2cnnc2N1 (stereo not drawn)	-0.0673
CC(=O)c1cnn(-c2c(Cl)cc(Cl)cc2Cl)c1C	7.75
CC1CCCCC1NC(=O)CCCn1c(=S)[nH]c2ccsc2c1=O (stereo not drawn)	22.6
COc1ccccc1CNC(=O)CCNS(=O)(=O)c1cc(Br)cnc1N	-2.62
CCN(CC)C(=O)CSc1nc2c(sc(=S)n2Cc2ccco2)c(=O)n1-c1ccccc1	5.26
Cc1cc(C)c2c(CC(=O)NC(C)C)coc2c1	12

SMILES	hERG current change (%, negative = inhibition) at 1uM [%]
CC(=O)Nc1nc(NCc2ccccc2Cl)n(-c2ccccc2)n1	13.7
COC(=O)c1sc2nc(C)nc(SCC(=O)C(C)(C)C)c2c1C	16
CCOc1ccc(-c2cc(C(=O)NN=C3CCN(C)CC3)[nH]n2)cc1	7.5
Cc1ccc(C(=O)NC(=S)NNC(=O)COc2ccc([N+](=O)[O-])cc2)cc1	13.9
O=C(NCCc1ccncc1)Nc1ccccc1Cl	5.83
Nc1ccn(CC(=O)N[C@H](CO)Cc2c[nH]c3ccccc23)c(=O)n1	23.4
Cc1nn(C)cc1C(C)NC(=O)c1cc(COc2cccc3cnccc23)on1 (stereo not drawn)	17.1
Brc1ccc(-c2nnc(Cc3ccccc3)o2)cc1	4.56
COc1cccc(NC(=O)CSc2ccccn2)c1	0.305
COc1ccc(Nc2sc(C(=O)c3ccc(Cl)cc3)c(N)c2C(=O)Nc2ccccc2OC)cc1	-8.63
Cc1cc(NC(=O)C(C)SCC(=O)Nc2nc3c(F)cc(F)cc3s2)no1 (stereo not drawn)	7.71
COc1ccc2nc(NC(=O)c3ccco3)sc2c1	3.68
O=C(CS(=O)CC(=O)Nc1cccc2c1CCCC2)Nc1ccc(F)cc1 (stereo not drawn)	19.8
Cc1nc(NCCCO)c(C#N)c2c1COC(C)(C)C2	-7.86
Cc1ncoc1C(=O)N1CCCC(C(=O)c2cccc3ccccc23)C1 (stereo not drawn)	9.25
CC(N=Cc1cccc(O)c1O)c1ccccc1 (stereo not drawn)	4.71
S=c1[nH]nc(-c2ccco2)n1/N=C/c1c(Cl)cccc1Cl	1.31
CCOc1ccc(N(Cc2ccc(OC)cc2)C(=O)c2ccco2)cc1	12.2
Cc1ccc(C(C(=O)NC2CCCCC2)N2CCOCC2)cc1 (stereo not drawn)	8.13
O=C(CNC(=O)/C(=C\c1ccc(F)cc1)NC(=O)c1ccccc1)OCc1ccccc1	-69
COc1ccc(N2CCN(C(=O)c3oc4ccccc4c3NC(=O)Cc3ccc(OC)c(OC)c3)CC2)cc1	8.68
